# Laboratory results: the supplement of paper PMC12355420
# Structures can show the parent of a compound that is named as a salt. Some of the results follow. Cut-off read from the data, not from the text of the source: active = 0.5 or less and inactive = the rest. Repeats are few or missing, and single values can be far off.
# Tests used:
# Details in all cases: 50 µM; 24 h
# [1] = system: HeLa VPS33A reporter cells; assay: relative cell viability (CellMask signal) vs DMSO (fraction of DMSO); higher = less cytotoxic;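 note: primary screen of an FDA-approved drug library in HeLa reporter cells in 96-well format, CellMask signal normalized to DMSO-treated wells set as 1, under 0.5 deemed highly cytotoxic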
# [2] = system: HeLa VPS33A R498W KI + HA-SDC1-FLAG; assay: relative GAG core protein HA-SDC1 amount per cell number vs DMSO (fraction of DMSO); higher = more SDC1 (GAG core protein);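 note: HA-SDC1 level read out by In-Cell Western staining with an anti-HA antibody against the N-terminal tag, screening FDA-approved library drugs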
# [3] = system: HeLa VPS33A KO + NLuc-VPS33A R498W; assay: relative mutant VPS33A R498W amount (NanoLuc luminescence) vs DMSO (fraction of DMSO); HeLa model of a glycosaminoglycan (GAG) storage disease; KI is knock-in and KO knock-out; SDC1 is syndecan 1; higher = higher mutant VPS33A level;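 note: screen of an FDA-approved drug library, NanoLuc luminescence read after lysing the treated cells, taken as a measure of mutant VPS33A protein stability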
Compound,relative cell viability [1],relative GAG core protein HA-SDC1 amount per cell number [2],relative mutant VPS33A R498W amount [3]
CN[C@H](CC(C)C)C(=O)N[C@H]1C(=O)N[C@@H](CC(N)=O)C(=O)N[C@H]2C(=O)N[C@H]3C(=O)N[C@H](C(=O)N[C@H](C(=O)O)c4cc(O)cc(O)c4-c4cc3ccc4O)[C@H](O)c3ccc(c(Cl)c3)Oc3cc2cc(c3O[C@@H]2O[C@H](CO)[C@@H](O)[C@H](O)[C@H]2O[C@H]2C[C@](C)(N)[C@H](O)[C@H](C)O2)Oc2ccc(cc2Cl)[C@H]1O [Vancomycin hydrochloride],1.26,inactive: 1.45,1.09
CO[C@H]1C(=O)[C@]2(C)[C@@H](OC)C[C@H]3OC[C@@]3(OC(C)=O)[C@H]2[C@H](OC(=O)c2ccccc2)[C@]2(O)C[C@H](OC(=O)[C@H](O)[C@@H](NC(=O)OC(C)(C)C)c3ccccc3)C(C)=C1C2(C)C [Cabazitaxel],0.521,active: 0.325,0.627
CC(=O)CCC(=O)O [Levulinic acid],1.06,inactive: 1.02,1.18
O=C(NS(=O)(=O)c1ccc(Br)s1)c1ccc(Cl)cc1Cl [Tasisulam],1.12,inactive: 0.944,0.833
CCC[C@@H]1C[C@@H](C(=O)N[C@@H]([C@H]2O[C@H](SC)[C@H](OP(=O)(O)O)[C@@H](O)[C@H]2O)[C@H](C)Cl)N(C)C1 [Clindamycin Phosphate],0.992,inactive: 1.58,0.999
Nc1c(Br)cc(Br)cc1CN[C@H]1CC[C@H](O)CC1 [Ambroxol HCl],1.04,inactive: 0.57,0.812
